# Measurements published in the supplement of paper PMC8728848.
# Some of the results follow.
# B1: PILRa (Homo sapiens), Q9UKJ1 (protein)
# chain: MGRPLLLPLLPLLLPPAFLQPSGSTGSGPSYLYGVTQPKHLSASMGGSVEIPFSFYYPWELATAPDVRISWRRGHFHRQSFYSTRPPSIHKDYVNRLFLNWTEGQKSGFLRISNLQKQDQSVYFCRVELDTRSSGRQQWQSIEGTKLSITQAVTTTTQRPSSMTTTWRLSSTTTTTGLRVTQGKRRSDSWHISLETAVGVAVAVTVLGIMILGLICLLRWRRRKGQQRTKATTPAREPFQNTEEPYENIRNEGQNTDPKLNPKDDGIVYASLALSSSTSPRAPPSHRPLKSPQNETLYSVLKA
# Experiments:
# Assay in all cases: glycan array binding signal (z-score within array); higher = stronger binding
# Details in all cases: glycan notation: IUPAC condensed, linker removed
# [1] = target: Gal(b1-3)GalNAc(b1-4)[Neu5Ac(a2-3)]Gal(b1-4)Glc
# In short: (§1)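 The binding signal is a Z-score computed within each array. Data were drawn from 3228 arrays in the Consortium for Functional Glycomics database, restricted to those with a known protein sequence. Scores were averaged over arrays of the same protein sequence at different concentrations or buffers, and over linkers, and negative values can be taken as non-binding.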
# Gal(b1-3)GlcNAc = target: Gal(b1-3)GlcNAc
# In short: as §1
# [2] = target: Gal(b1-3)GlcNAc(a1-6)Gal(b1-4)GlcNAc
# In short: as §1
# [3] = target: Gal(b1-3)GlcNAc(b1-2)Man(a1-3)[Gal(b1-3)GlcNAc(b1-2)Man(a1-6)]Man(b1-4)GlcNAc(b1-4)GlcNAc
# In short: as §1
# [4] = target: Gal(b1-3)GlcNAc(b1-2)Man(a1-3)[Gal(b1-3)GlcNAc(b1-2)Man(a1-6)]Man(b1-4)GlcNAc(b1-4)[Fuc(a1-6)]GlcNAc
# In short: as §1
# [5] = target: Gal(b1-3)GlcNAc(b1-2)[Gal(b1-3)GlcNAc(b1-6)]Man(a1-6)[Gal(b1-3)GlcNAc(b1-2)Man(a1-3)]Man(b1-4)GlcNAc(b1-4)GlcNAc
# In short: as §1
# [6] = target: Gal(b1-3)GlcNAc(b1-3)Gal(b1-3)GlcNAc
# In short: as §1
# [7] = target: Gal(b1-3)GlcNAc(b1-3)Gal(b1-4)Glc
# In short: as §1
# [8] = target: Gal(b1-3)GlcNAc(b1-3)Gal(b1-4)GlcNAc
# In short: as §1
# [9] = target: Gal(b1-3)GlcNAc(b1-3)Gal(b1-4)GlcNAc(b1-6)[Gal(b1-3)GlcNAc(b1-3)]Gal(b1-4)Glc
# In short: as §1
# [10] = target: Gal(b1-3)GlcNAc(b1-3)Gal(b1-4)[Fuc(a1-3)]GlcNAc(b1-6)[Gal(b1-3)GlcNAc(b1-3)]Gal(b1-4)Glc
# In short: as §1
# [11] = target: Gal(b1-3)GlcNAc(b1-3)GalNAc
# In short: as §1
# [12] = target: Gal(b1-3)GlcNAc(b1-6)Gal(b1-4)GlcNAc
# In short: as §1
# [13] = target: Gal(b1-3)[Fuc(a1-4)]GlcNAc
# In short: as §1
# [14] = target: Gal(b1-3)[Fuc(a1-4)]GlcNAc(b1-2)Man(a1-3)[Gal(b1-3)[Fuc(a1-4)]GlcNAc(b1-2)Man(a1-6)]Man(b1-4)GlcNAc(b1-4)GlcNAc
# In short: as §1
# [15] = target: Gal(b1-3)[Fuc(a1-4)]GlcNAc(b1-2)Man(a1-3)[Gal(b1-3)[Fuc(a1-4)]GlcNAc(b1-2)Man(a1-6)]Man(b1-4)GlcNAc(b1-4)[Fuc(a1-6)]GlcNAc
# In short: as §1
# [16] = target: Gal(b1-3)[Fuc(a1-4)]GlcNAc(b1-3)Gal(b1-3)[Fuc(a1-4)]GlcNAc
# In short: as §1
# [17] = target: Gal(b1-3)[Fuc(a1-4)]GlcNAc(b1-3)Gal(b1-4)GlcNAc
# In short: as §1
# [18] = target: Gal(b1-3)[Fuc(a1-4)]GlcNAc(b1-3)Gal(b1-4)[Fuc(a1-3)]GlcNAc
# In short: as §1
# [19] = target: Gal(b1-3)[GlcNAc(b1-6)]GalNAc
# In short: as §1
# [20] = target: Gal(b1-3)[Neu5Ac(a2-6)]GalNAc
# In short: as §1
# [21] = target: Gal(b1-3)[Neu5Ac(a2-6)]GlcNAc(b1-6)Gal(b1-4)Glc
# In short: as §1
# [22] = target: Gal(b1-3)[Neu5Ac(b2-6)]GalNAc
# In short: as §1
# Gal(b1-4)Gal = target: Gal(b1-4)Gal
# In short: as §1
# [23] = target: Gal(b1-4)GalNAc(a1-3)[Fuc(a1-2)]Gal(b1-4)GlcNAc
# In short: as §1
# [24] = target: Gal(b1-4)GalNAc(b1-3)[Fuc(a1-2)]Gal(b1-4)GlcNAc
# In short: as §1
# Gal(b1-4)Glc = target: Gal(b1-4)Glc
# In short: as §1
# Gal(b1-4)Glc6S = target: Gal(b1-4)Glc6S
# In short: as §1
# Gal(b1-4)GlcNAc = target: Gal(b1-4)GlcNAc
# In short: as §1
# [25] = target: Gal(b1-4)GlcNAc(a1-6)Gal(b1-4)GlcNAc
# In short: as §1
# [26] = target: Gal(b1-4)GlcNAc(b1-2)Man(a1-3)Man(b1-4)GlcNAc(b1-4)GlcNAc
# In short: as §1
# [27] = target: Gal(b1-4)GlcNAc(b1-2)Man(a1-3)[Gal(b1-4)GlcNAc(b1-2)Man(a1-6)]Man(b1-4)GlcNAc(b1-4)GlcNAc
# In short: as §1
# [28] = target: Gal(b1-4)GlcNAc(b1-2)Man(a1-3)[Gal(b1-4)GlcNAc(b1-2)Man(a1-6)]Man(b1-4)GlcNAc(b1-4)[Fuc(a1-6)]GlcNAc
# In short: as §1
# [29] = target: Gal(b1-4)GlcNAc(b1-2)Man(a1-3)[Gal(b1-4)GlcNAc(b1-2)][GlcNAc(b1-4)]Man(b1-4)GlcNAc(b1-4)GlcNAc
# In short: as §1
# [30] = target: Gal(b1-4)GlcNAc(b1-2)Man(a1-3)[GlcNAc(b1-2)Man(a1-6)]Man(b1-4)GlcNAc(b1-4)GlcNAc
# In short: as §1
# [31] = target: Gal(b1-4)GlcNAc(b1-2)Man(a1-3)[Man(a1-6)]Man(b1-4)GlcNAc(b1-4)GlcNAc
# In short: as §1
# [32] = target: Gal(b1-4)GlcNAc(b1-2)Man(a1-6)Man(b1-4)GlcNAc(b1-4)GlcNAc
# In short: as §1
# [33] = target: Gal(b1-4)GlcNAc(b1-2)Man(a1-6)[GlcNAc(b1-2)Man(a1-3)]Man(b1-4)GlcNAc(b1-4)GlcNAc
# In short: as §1
binder,measurement,setting,value
B1,glycan array binding signal (z-score),[1],-0.382
same,glycan array binding signal (z-score),Gal(b1-3)GlcNAc,-0.077
same,glycan array binding signal (z-score),[2],-0.188
same,glycan array binding signal (z-score),[3],-0.224
same,glycan array binding signal (z-score),[4],-0.179
same,glycan array binding signal (z-score),[5],-0.133
same,glycan array binding signal (z-score),[6],0.263
same,glycan array binding signal (z-score),[7],-0.074
same,glycan array binding signal (z-score),[8],-0.248
same,glycan array binding signal (z-score),[9],0.017
same,glycan array binding signal (z-score),[10],-0.214
same,glycan array binding signal (z-score),[11],-0.173
same,glycan array binding signal (z-score),[12],-0.136
same,glycan array binding signal (z-score),[13],0.066
same,glycan array binding signal (z-score),[14],0.034
same,glycan array binding signal (z-score),[15],-0.145
same,glycan array binding signal (z-score),[16],-0.153
same,glycan array binding signal (z-score),[17],-0.315
same,glycan array binding signal (z-score),[18],-0.112
same,glycan array binding signal (z-score),[19],-0.213
same,glycan array binding signal (z-score),[20],-0.098
same,glycan array binding signal (z-score),[21],0.123
same,glycan array binding signal (z-score),[22],-0.21
same,glycan array binding signal (z-score),Gal(b1-4)Gal,-0.244
same,glycan array binding signal (z-score),[23],-0.252
same,glycan array binding signal (z-score),[24],-0.011
same,glycan array binding signal (z-score),Gal(b1-4)Glc,-0.064
same,glycan array binding signal (z-score),Gal(b1-4)Glc6S,0.053
same,glycan array binding signal (z-score),Gal(b1-4)GlcNAc,-0.173
same,glycan array binding signal (z-score),[25],-0.276
same,glycan array binding signal (z-score),[26],-0.196
same,glycan array binding signal (z-score),[27],-0.184
same,glycan array binding signal (z-score),[28],-0.268
same,glycan array binding signal (z-score),[29],-0.113
same,glycan array binding signal (z-score),[30],-0.28
same,glycan array binding signal (z-score),[31],-0.217
same,glycan array binding signal (z-score),[32],-0.255
same,glycan array binding signal (z-score),[33],-0.376
